These results are taken from the supplement of paper PMC4967469.

By IC50 is meant the dose at which the fit gives 50% viability; fits outside the tested doses are given as limits. AUC sums up the same curve from the lowest dose to the 256-fold higher top dose; it is 1 without any effect and falls as sensitivity rises. For some assays here: An inferred top dose was calculated from the reported fits. Bounds are passed on as bounds.

Assay in all cases: Viability of human cancer cell lines after 72 h of drug (GDSC screen)
Compound in experiment [1]: COc1cc(/C=C/C(=O)N2CCC=CC2=O)cc(OC)c1OC [piperlongumine]
The following applies: top dose 10 µM. As to the method:
(§1)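 Human cancer cell lines in 384-well plates, medium with 10% serum, drug for 72 h over a 256-fold dose range (nine 2-fold or five 4-fold steps up to the top dose). Adherent lines were fixed and stained with the nucleic acid dye Syto60, suspension lines read with resazurin; signal relative to control wells, capped at 0 and 100%. One two-parameter sigmoid per drug and line, fitted in a mixed model over all curves with the slope shared within a line.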

Compound in experiment [2]: CC(=O)Nc1nc(C)c(-c2ccc(Cl)c(S(=O)(=O)NCCO)c2)s1 [PIK-93]
The following applies: top dose 20 µM. On the procedure: as §1

Compound in experiment [3]: Cn1cc(/C=C2\C(=O)Nc3cccnc32)c2ccccc21 [GW 441756]
The following applies: top dose 2 µM; top dose inferred. As to the method:
as §1

Turning to BFTC-909 (kidney, adherent), in experiment [1], the AUC is 0.658 and the half-maximal inhibitory concentration (IC50) came out at 1.7 µM. In experiment [2], the AUC came out at 0.965 and the concentration for half-maximal inhibition (IC50) is above 20 µM.

Take Caov-3 (ovary, adherent): in experiment [2], the AUC was 0.757 and the IC50 was 6.14 µM.

On to “COR-L311 (small cell lung carcinoma, suspension)”, for which, in experiment [2], the AUC was 0.554 and the IC50 was determined as 1.77 µM.

On to PL18 (pancreas, adherent), for which, in experiment [1], the AUC worked out at 0.464 and the IC50 turned out to be 0.498 µM. In addition, in experiment [2], the AUC is 0.933 and the concentration for half-maximal inhibition (IC50) is above 20 µM.

With H2804 (mesothelioma, adherent), the AUC amounted to 0.826 in experiment [1] and 0.94 in experiment [2]. Further, the figures for the IC50 in experiment [1] and in experiment [2] were 6.84 µM and above 20 µM, respectively.

In the case of “NCI-H2228 (lung adenocarcinoma, adherent)”, in experiment [1], the AUC came out at 0.839 and the half-maximal inhibitory concentration (IC50) is above 10 µM. Also, in experiment [2], the AUC worked out at 0.841 and the half-maximal inhibitory concentration (IC50) is above 20 µM.

SN12C (kidney, adherent): in experiment [1], the AUC is 0.773 and the IC50 worked out at 4.39 µM. Further, in experiment [2], the AUC was determined as 0.97 and the IC50 is above 20 µM.

With YMB-1-E (breast, adherent), in experiment [2], the AUC was found to be 0.816 and the half-inhibitory concentration (IC50) came to 16.7 µM.

Turning to “LU-99A (large cell lung carcinoma, adherent)”, in experiment [1], the AUC came to 0.74 and the IC50 came out at 3.01 µM. Further, in experiment [2], the AUC turned out to be 0.865 and the IC50 is 17.4 µM.

As to “NCI-H1299 (large cell lung carcinoma, adherent)”, the values for the AUC in experiment [1] and in experiment [2] were 0.774 and 0.879, respectively. Moreover, the concentration for half-maximal inhibition (IC50) in experiment [1] is 4.85 µM; in experiment [2], above 20 µM.

Turning to SW837 (large intestine, adherent), in experiment [1], the AUC was 0.838 and the IC50 was above 10 µM. For the same cell line, in experiment [2], the AUC came out at 0.902 and the half-inhibitory concentration (IC50) is above 20 µM.

As to HPAF-II (pancreas, adherent), in experiment [1], the AUC came out at 0.738 and the concentration for half-maximal inhibition (IC50) is 3.77 µM. Moreover, in experiment [2], the AUC came out at 0.82 and the IC50 was 16.3 µM.

With “COR-L32 (small cell lung carcinoma, suspension)”, in experiment [1], the AUC was determined as 0.8 and the half-maximal inhibitory concentration (IC50) was above 10 µM.

Take RD (rhabdomyosarcoma, adherent): the values for the AUC in experiment [1] and in experiment [2] were 0.644 and 0.803, respectively. The 50% inhibitory concentration (IC50) in experiment [1] was found to be 1.63 µM; in experiment [2] it was 11 µM.

PANC-08-13 (pancreas, adherent): in experiment [1], the AUC is 0.799 and the IC50 came to 6.41 µM. Besides, in experiment [2], the AUC was 0.721 and the IC50 worked out at 6.42 µM.

Consider “BEN (non-small cell lung carcinoma, adherent)”, for which the figures for the AUC in experiment [1] and in experiment [2] were 0.929 and 0.915, respectively. Also, the IC50 in experiment [1] was above 10 µM; in experiment [2] it was above 20 µM.

As for “NCI-H196 (small cell lung carcinoma, adherent)”, in experiment [1], the AUC turned out to be 0.942 and the concentration for half-maximal inhibition (IC50) was above 10 µM. In experiment [2], the AUC came out at 0.926 and the half-inhibitory concentration (IC50) is above 20 µM.

Regarding “COR-L303 (small cell lung carcinoma, suspension)”, in experiment [2], the AUC was determined as 0.742 and the IC50 came out at 5.98 µM.

Take “COR-L105 (lung adenocarcinoma, adherent)”: in experiment [1], the AUC came to 0.728 and the half-inhibitory concentration (IC50) is 3.27 µM. Further, in experiment [2], the AUC came out at 0.645 and the IC50 came out at 3.46 µM.

For the cell line H2810 (mesothelioma, adherent), in experiment [1], the AUC worked out at 0.9 and the 50% inhibitory concentration (IC50) is above 10 µM.

Take SW156 (kidney, adherent): in experiment [1], the AUC was found to be 0.848 and the IC50 is 8.67 µM. In experiment [2], the AUC amounted to 0.841 and the 50% inhibitory concentration (IC50) turned out to be 16.2 µM.

Take SNU-398 (liver, adherent): in experiment [1], the AUC was determined as 0.748 and the half-maximal inhibitory concentration (IC50) amounted to 3.32 µM. Also, in experiment [2], the AUC is 0.678 and the IC50 was 4.01 µM.

RT-112 (bladder, adherent): the AUC in experiment [1] was determined as 0.787; in experiment [2], 0.775. Further, the IC50 in experiment [1] came out at 4.71 µM; in experiment [2], 8.52 µM.

For the cell line KP-4 (pancreas, adherent), in experiment [1], the AUC turned out to be 0.725 and the half-inhibitory concentration (IC50) turned out to be 2.63 µM. Moreover, in experiment [2], the AUC amounted to 0.963 and the IC50 was above 20 µM.

As for COLO-792 (melanoma, adherent), in experiment [1], the AUC came out at 0.778 and the IC50 worked out at 3.99 µM. Besides, in experiment [2], the AUC is 0.904 and the IC50 is above 20 µM.

Regarding T-24 (bladder, adherent), the AUC amounted to 0.716 in experiment [1] and 0.897 in experiment [2]. Moreover, the IC50 in experiment [1] was 2.47 µM; in experiment [2], above 20 µM.

Turning to HO-1-N-1 (head and neck, adherent), in experiment [1], the AUC was determined as 0.734 and the IC50 was found to be 2.72 µM. In addition, in experiment [2], the AUC was found to be 0.893 and the IC50 is above 20 µM.

SNU-175 (large intestine, suspension): in experiment [2], the AUC turned out to be 0.807 and the IC50 is 9.5 µM.

Take IM-95 (stomach, adherent): in experiment [1], the AUC was 0.977 and the IC50 is above 10 µM. In experiment [2], the AUC was found to be 0.707 and the IC50 was determined as 5 µM.

Take 769-P (kidney, adherent): in experiment [1], the AUC worked out at 0.685 and the IC50 was 2.17 µM. Besides, in experiment [2], the AUC is 0.87 and the IC50 was above 20 µM.

On to SW1463 (large intestine, adherent), for which, in experiment [1], the AUC came to 0.956 and the half-inhibitory concentration (IC50) was above 10 µM. For the same cell line, in experiment [2], the AUC came to 0.978 and the IC50 was above 20 µM.

As for SNU-475 (liver, adherent), in experiment [2], the AUC was determined as 0.822 and the IC50 worked out at 9.92 µM.

In the case of H2818 (mesothelioma, adherent), in experiment [1], the AUC was 0.816 and the half-inhibitory concentration (IC50) turned out to be 5.75 µM. For the same cell line, in experiment [2], the AUC amounted to 0.97 and the IC50 is above 20 µM.

As to “NCI-H146 (small cell lung carcinoma, suspension)”, in experiment [3], the AUC was 0.995 and the 50% inhibitory concentration (IC50) was above 2 µM. In experiment [1], the AUC is 0.898 and the IC50 is 7.95 µM.

For “NCI-H2170 (lung squamous cell carcinoma, adherent)”, in experiment [1], the AUC is 0.914 and the IC50 is above 10 µM. In experiment [2], the AUC turned out to be 0.936 and the half-maximal inhibitory concentration (IC50) was above 20 µM.

Take Hs940-T (melanoma, adherent): in experiment [1], the AUC was 0.796 and the half-inhibitory concentration (IC50) was found to be 5.84 µM. Further, in experiment [2], the AUC stood at 0.984 and the concentration for half-maximal inhibition (IC50) was above 20 µM.

Take SW1088 (glioma, adherent): in experiment [1], the AUC amounted to 0.844 and the IC50 was above 10 µM. Further, in experiment [2], the AUC stood at 0.903 and the concentration for half-maximal inhibition (IC50) is above 20 µM.

In the case of A549 (lung adenocarcinoma, adherent), in experiment [3], the AUC was found to be 0.903 and the half-maximal inhibitory concentration (IC50) was above 2 µM.
